In PubChem BioAssay AID761 (NMMLSC, 2007):
The campaign covered roughly 190,000 compounds. About 400 (0.21%) were called active. The inconclusive results got no clear call from the source; some entries with a clear call stand among them for comparison.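 Rule for the calls: active = percent activity GTP binding at least 20 points away from the 100% baseline, either down as inhibitor or up as activator; inconclusive = compound flagged as likely green fluorescent from well-wide comparison; inactive = the rest.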

These compounds were tested against Cell division control protein 42 homolog (Homo sapiens) (UniProt P60953) (assay: wildtype Cdc42 fluorescent GTP binding changes, either direction – biochemical, multiplex bead flow cytometry, Bodipy-GTP, primary screen (AID 761;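 note: median bead fluorescence of bound Bodipy-FL-GTP at 100 nM; 0% = excess unlabeled GTP control and 100% = no compound control; below 100% means less GTP binding so inhibitor and above means activator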)). Conditions: GST-Cdc42 beads, at 10 µM, actives lie on both sides.
UniProt P60953, sequence (P60953 whole entry, looked up): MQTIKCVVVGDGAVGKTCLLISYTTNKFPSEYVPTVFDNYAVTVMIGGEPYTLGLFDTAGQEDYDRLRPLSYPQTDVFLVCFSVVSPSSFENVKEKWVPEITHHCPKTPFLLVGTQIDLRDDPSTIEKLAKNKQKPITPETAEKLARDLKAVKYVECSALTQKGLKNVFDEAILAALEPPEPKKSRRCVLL

Row | SMILES | percent activity (GTP binding)
1 | CC(=O)NC(c1ccco1)c1ccc2cccnc2c1O (centres undefined) | inconclusive: 87%
2 | CN(C)S(=O)(=O)c1ccc(C(=O)OCC(=O)Nc2ccccc2OC(F)F)cc1 | inconclusive: 102%
3 | Cc1ccc(-c2csc3nc(C)n(N)c(=O)c23)o1 | inconclusive: 107%
4 | CCCc1nc2cc(Cl)c([N+](=O)[O-])cc2o1 | inconclusive: 98%
5 | CCC(CC)C(=O)Nc1cccc(C(=O)Nc2ccc(OC)cc2[N+](=O)[O-])c1 | inconclusive: 109%
6 | CNC(=S)NCCc1cc2c(OC)ccc(OC)c2[nH]c1=O | inactive: 96%
7 | S=C(Nc1ccc(Oc2ccccc2)cc1)NC1CCCCC1 | inactive: 115%
8 | COC(=O)C1=C(C)N(c2cccc(Cl)c2)C(=O)C1 | inconclusive: 102%
9 | COCCn1c(SCC(=O)Nc2cc(C)cc(C)c2)nnc1C(C)C | inconclusive: 102%
10 | O=C(Nc1ccccc1)N1CCOCC1 | inconclusive: 102%
11 | N/C(=N\OC(=O)CC1CCCCC1)c1ccccn1 | inconclusive: 106%
12 | Cc1cccc(-n2cc(CNCCN3CCOC3=O)c(-c3cccc(F)c3)n2)c1 | inactive: 94%
13 | Nc1nn2c(-c3ccccc3)cc(=O)[nH]c2c1N=Nc1ccc(O)cc1 | inconclusive: 74%
14 | CCn1cc(C(=O)OCC(=O)c2cc(C)n(-c3cccc(C(F)(F)F)c3)c2C)c(=O)c2ccc(C)nc21 | active: 79%
15 | Cc1csc(Sc2ccc(S(=O)(=O)N3CCCC3)cn2)n1 | inactive: 99%
16 | Cc1ccc(NCC(=O)NNC2=NCCC2)c(C)c1 | inactive: 98%
17 | O=C1C(=O)N(Cc2ccccc2)C(=O)N1CCN1C(=O)c2ccccc2C1=O | inconclusive: 93%
18 | CCC1CCCCN1C(=O)CSc1nc2c(c(=O)n(C)c(=O)n2C)n1C (centres undefined) | inactive: 98%
19 | O=C(Oc1cccnc1)c1cc2ccccc2oc1=O | inconclusive: 90%
20 | CC(=O)c1cn(CC(=O)Nc2cccc(C)c2C)c2ccccc12 | inconclusive: 95%
21 | O=C(Nc1ccc2ncccc2c1)c1cc(Cl)ccc1Cl | inactive: 95%
22 | CCCn1c(N)c(Sc2ccc([N+](=O)[O-])cc2)c(=O)n(CCC)c1=O | inconclusive: 94%
23 | COc1ccc(Cl)cc1NC(=S)NCCN1CCOCC1 | inconclusive: 96%
24 | CCOC(=O)C1CCN(C(=O)Cc2cccs2)CC1 | inconclusive: 97%
25 | Nc1ccc2c(c1)Oc1ccccc1C=C2 | inconclusive: 92%
26 | CC(C)n1c(O)c(N=NC(=O)c2ccccc2NS(=O)(=O)c2cccs2)c2ccccc21 | inconclusive: 94%

Row | SMILES | percent activity (GTP binding)
27 | COCCNC(=O)C1CC(=O)N(c2ccc(OC)cc2)C1c1ccc(OC)cc1 (centres undefined) | inactive: 100%
28 | O=C(COC(=O)c1cncc(Br)c1)NCc1ccco1 | inconclusive: 105%
29 | OCCSc1nc(N2CCOCC2)nc(N2CCOCC2)n1 | inactive: 99%
30 | C=CCN(C(=O)c1cccc(C(F)(F)F)c1)C1(C(=O)Nc2ccccc2)CCN(C(C)C)CC1 | inconclusive: 97%
31 | O=[N+]([O-])c1ccccc1OCc1nc(-c2cccs2)no1 | inconclusive: 94%
32 | COc1cccc2c(SCC(=O)N/N=C/c3ccc(O)cc3O)cc(C)nc12 | active: 66%
33 | Cc1ccnc(SCC(=O)n2c3c(c4ccccc42)CC(C)CC3)n1 (centres undefined) | inconclusive: 103%
34 | CC(C)Oc1ccc(/C=N/NC(=O)c2ccc(N(Cc3ccccc3)S(C)(=O)=O)cc2)cc1 | inactive: 84%
35 | CCC(C)NC(=O)COC(=O)c1oc2ccccc2c1CSc1ccc(Cl)cc1 (centres undefined) | inactive: 100%
36 | Cc1nc(C(F)(F)F)c(C(=O)N/N=C(\N)c2ccccn2)s1 | inactive: 98%
37 | Cc1ccc(C2=CSC3=NS(=O)(=O)CCN23)cc1 | inconclusive: 92%
38 | CCc1nc2ccc(C(=O)O)cc2nc1CC | inactive: 95%
39 | COCC(C)N1CC(O)=C(c2nc(-c3ccc(Cl)cc3)cs2)C1=N (centres undefined) | inconclusive: 92%
40 | N=C1S/C(=C\c2ccco2)C(=O)N1c1ccc2c(c1)OCO2 | inconclusive: 89%
41 | CCOC(=O)c1cc([N+](=O)[O-])c([N+](=O)[O-])cc1NC(C)=O | active: 78%
42 | CCCN1CNC(=S)N(c2ccccc2C)C1 | inactive: 99%
43 | Cc1cccc(S(=O)(=O)c2c(N)n(/N=C/c3cccnc3)c3nc4ccccc4nc23)c1 | inconclusive: 67%
44 | CCOC(=O)c1c(C)[nH]c(C(=O)/C(C#N)=C/c2ccc(OC(F)F)c(OC)c2)c1C | inconclusive: 106%
45 | Cc1occc1-c1nnc(SCC(=O)Nc2nc(-c3ccccc3)cs2)o1 | inconclusive: 104%
46 | CCCCN(CCCC)c1nc2ccccc2nc1C(C#N)C(=O)NCCCOC (centres undefined) | inconclusive: 114%
47 | S=C(NCCCn1ccnc1)Nc1ccc(Cl)cc1Cl | inconclusive: 88%
48 | CC1=CCC(Cc2nc3ccccc3o2)C1(C)C (centres undefined) | inconclusive: 94%
49 | CC(=O)c1cccc(NC(=S)NNC(=O)c2ccco2)c1 | inconclusive: 86%
50 | CCCn1c2c(c(O)c(C(=O)Nc3ccccc3)c1=O)CCCC2 | inconclusive: 107%
51 | COc1ccc(S(=O)(=O)N2CCC(C(=O)N3CCc4ccccc4C3)CC2)cc1 | inconclusive: 111%
52 | CCCn1nnc(NC(=O)/C=C/c2cc(Br)ccc2OC)n1 | inconclusive: 95%

Row | SMILES | percent activity (GTP binding)
53 | O=c1c(Cc2ccc(F)cc2)c(O)ccn1Cc1ccc(F)cc1 | inconclusive: 95%
54 | COCCN(CCOC)S(=O)(=O)c1ccc(C(=O)Nc2nc3c(s2)CCc2ccccc2-3)cc1 | inactive: 107%
55 | O=C(NCc1cccs1)c1cccn2c(=O)c3sccc3nc12 | active: 63%
56 | O=C(CSc1ncnc2c1oc1ccccc12)Nc1ccccc1F | inconclusive: 95%
57 | CC1CC(C)CN(C(=O)Cn2c(=O)n(CCCCC(=O)NCc3ccco3)c(=O)c3ccccc32)C1 (centres undefined) | inconclusive: 106%
58 | Cc1ccccc1NC(=O)C1CCCN(S(=O)(=O)c2cccc3cccnc23)C1 (centres undefined) | inactive: 98%
59 | CC(=O)c1c(C)[nH]c(C(=O)NCc2ccco2)c1C | inconclusive: 89%
60 | O=C(NC1(C(F)(F)F)NC(=O)N(Cc2ccco2)C1=O)c1cccnc1 (centres undefined) | inconclusive: 101%
61 | Cc1cc(C(=O)NC(CC(C)C)C(=O)O)cc(C)c1[N+](=O)[O-] (centres undefined) | inactive: 96%
62 | OC(CNCC1CCCO1)Cn1c2ccc(Cl)cc2c2cc(Cl)ccc21 (centres undefined) | inconclusive: 105%
63 | CC(=O)Nc1ccc(NC(=O)c2c(C)nn(-c3ccccc3)c2Cl)cc1C | inactive: 94%
64 | COc1ccc(Nc2nc3ccc(C)cn3c(=O)c2/C=N/O)cc1 | inconclusive: 84%
65 | N#Cc1c(-c2ccccc2Cl)cc(-c2ccccc2)[nH]c1=S | inactive: 93%
66 | CCOCCCNc1nc(=S)[nH]c2cc(OC)c(OC)cc12 | inconclusive: 60%
67 | COc1ccc(S(=O)(=O)Cc2ccc(C(=O)N3CCN(c4cccc(C)c4C)CC3)o2)cc1 | inconclusive: 74%
68 | O=S(=O)(Cc1ccccc1Cl)NCCc1ccccc1 | inactive: 98%
69 | CCc1ccc(NC(=O)c2ccc3ncsc3c2)cc1 | inconclusive: 106%
70 | Clc1ccc2c(c1)CCc1cccnc1C2=C1CCNCC1 | inconclusive: 106%
71 | O=C(COc1ccccc1/C=C\c1[nH]c(=O)[nH]c(=O)c1[N+](=O)[O-])Nc1ccccc1 | active: 73%
72 | COc1ccc(NC2CS(=O)(=O)CC2NCc2ccccc2)cc1 (centres undefined) | inactive: 99%
73 | O=C(Cc1nc(=O)c2ccccc2s1)Nc1ccccc1 | inconclusive: 86%
74 | Cc1cc(C)n2nc(C(=O)N3CCCC(CNS(=O)(=O)c4cccs4)C3)cc2n1 (centres undefined) | active: 34%
75 | Cc1ccc(S(=O)(=O)Cn2nnnc2CN2CCN(Cc3ccc4c(c3)OCO4)CC2)cc1 | inconclusive: 106%
76 | CCc1cc2cc(OC)ccc2nc1SCC(=O)Nc1cc(OC)c(OC)cc1C(=O)O | inconclusive: 94%
77 | COc1ccc(S(=O)(=O)NCC2CCCN(CC(C)(C)C)C2)cc1 (centres undefined) | inactive: 98%
78 | O=C(Nc1ccc(CCC(=O)N2CCCC2)cc1)c1ncn[nH]1 | inconclusive: 119%

Row | SMILES | percent activity (GTP binding)
79 | Cc1occc1C(=O)N/N=C/c1cccs1 | inconclusive: 105%
80 | O=C1NN(c2ccccc2)C(=O)/C1=C/c1ccc(-c2ccc(Cl)c(C(=O)O)c2)o1 | inactive: 87%
81 | Cc1cc(OC(=O)c2ccc3ccccc3c2)c([N+](=O)[O-])c(=O)[nH]1 | inconclusive: 89%
82 | COc1ccc(-c2cc(-c3ccc(O)cc3)nc(N)c2C#N)cc1OC | inactive: 81%
83 | Cc1cc(C)nc(N(C#N)Cc2ccc([N+](=O)[O-])cc2)n1 | inconclusive: 92%
84 | O=C1CS/C(=C\S(=O)(=O)c2ccc(Cl)cc2)N1 | inconclusive: 102%
85 | COc1cc2nc(=S)n(CCCN3CCOCC3)c(N)c2cc1OC | inconclusive: 65%
86 | Cc1ccc(NC(=O)CCCc2nc3ccccc3s2)c(O)c1 | inconclusive: 92%
87 | CN1CCN(C(=S)c2cn(CCOc3ccccc3)c3ccccc23)CC1 | inactive: 97%
88 | CCOC(=O)C1C2C=CC3(CN(Cc4cccs4)C(=O)C13)O2 (centres undefined) | inconclusive: 100%
89 | CCOc1cc2nc(-c3ccc(OC)c(OC)c3)nc(NCCCN3CCOCC3)c2cc1OC | inconclusive: 88%
90 | Cc1noc(N)c1C(=O)Nc1ccc(F)cc1 | inconclusive: 110%
91 | COc1ccc(CNC(=O)COC(=O)/C=C/c2ccco2)cc1 | inconclusive: 87%
92 | O=c1c2ccccc2nnn1Cc1ccc(Br)cc1 | inconclusive: 91%
93 | CCN1CCN(c2oc(COc3ccc(-c4ccccc4)cc3)nc2C#N)CC1 | inconclusive: 93%
94 | O=C(CC(=O)c1ccccc1)Nc1cccnc1Cl | inactive: 102%
95 | O=C(O)c1cccnc1SCc1ccccc1Cl | active: 122% [activator]
96 | CCN(CC)S(=O)(=O)c1ccc2c(c1)c(=O)c(C(=O)NCCN(C)CCc1ccccc1)cn2C | inconclusive: 104%
97 | CN(CCOc1ccccc1)Cc1nc2cc(Cl)ccc2c(=O)[nH]1 | inactive: 93%
98 | COc1ccc2cc(C)c3nnc(SCC(=O)Nc4nc(-c5ccc(F)cc5)cs4)n3c2c1 | inconclusive: 100%
99 | O=C(Cn1cc([N+](=O)[O-])cn1)Nc1cccnc1 | inconclusive: 98%
100 | N#C/C(=C/c1ccc(N2CCCCCC2)o1)c1cccc(F)c1 | inconclusive: 116%
101 | O=C(CN(Cc1ccccc1)S(=O)(=O)c1ccccc1)N/N=C/c1ccccc1C(=O)O | inactive: 95%
102 | O=C(COc1nc2ccccc2nc1N1CCOCC1)NC1CCCCC1 | inconclusive: 105%
103 | CC1CN(c2ccc([N+](=O)[O-])nc2)CC(C)O1 (centres undefined) | inactive: 92%
104 | CCNC(=O)NC(=O)C(C)Oc1ccc(Br)cc1Br (centres undefined) | inactive: 94%
